{"source": "the supplement of paper PMC12632987", "binders": {"B1": {"name": "GBRAP_78_6691 (protein)", "chain": "KIEEELEKAIEHLGKAAKILAKMNTEEALDLLDEVIDAASILTEALLGETKLEDLEEALKILEKVAKELKKINTEEAKEALEHVEKAIKHVKKAIKLLKE"}, "B2": {"name": "GBRAP_139_3706 (protein)", "chain": "SELEKIIEEARELTRKMEEDFEESLDKIVELIKSLDEEKAEAALKAIGEVLAEFPLDKAEEYADALLEKIEEEIDDEDKVIIAEAVLNGALARHAAAEEA"}, "B3": {"name": "GBRAP_74_6537 (protein)", "chain": "DEELLKAAKEAAEKGDIEKLIEIAEEALENGSEETKVEVTTILLKTAKENKEKLTPEQIEAIADIIAKLYEVVDDEKLSDETAKLANEALALAVKTEKEK"}, "B4": {"name": "GBRAP_80_6775 (protein)", "chain": "AEEEVKKAIEEVEKLDPELAERLKKIYEELLKKGVSEEVLKAFAEAVAAIAKLLKLGETEEAKELVEELEEAAEEEDDENILAMLRGIAGEALMIVEELE"}, "B5": {"name": "GBRAP_11_2750 (protein)", "chain": "EKEKLKEIAKLAEEAAKLLQQLIKEGADNKELQAKLKEALEKLEKKVKELGDEFLKKLVEIAKENFEQAQADPETAQQHLQNALAALRTLAGQALLEIEE"}, "B6": {"name": "GBRAP_52_6032 (protein)", "chain": "MRERARRLAEEIIALVKAGRLEEARALVREIVATASEEELRLLGEELARLTREAPPEELDAYMRAAEILADAMEEAGFPEVLADDLLARVAAAAVENLAA"}, "B7": {"name": "GBRAP_160_4081 (protein)", "chain": "SAAHEKLIKEVTEIFDEALKMMEGVTPAEAVAIALVALGEVALLIEEEEELSEEDKDKLLALVDAAEAEVRAAADATVAELKALLERHRDEIVAAIKALD"}, "B8": {"name": "GBRAP_57_6444 (protein)", "chain": "SERLKEAEKLAEEIKKMLEEGAPLEEIKKKFEKLLDLLSEEDLLDIALILDPETDPNASREEIKERLLELFERAVREEGPEAAKAMVDLAVGQLEMSEIE"}, "B9": {"name": "GBRAP_14_3873 (protein)", "chain": "KEAALAIAREEIEEMEELLIEAIPEKKEEIEEMKKKLLEAAEKFFESEEDPEKAVEKLEEFADEKIEELKKKLTPEEAALAEAIAGTEMGNLRLKVDELL"}, "B10": {"name": "GBRAP_14_3782 (protein)", "chain": "MEEKERIIREEAERIIELLTEIVPEKAAEIRELVERVVAATIARMKETGDAEAAAEAGRDELVAGIEELLADLDPETRARALAVVRVEFGRAILEIEELE"}, "B11": {"name": "GBRAP_125_3014 (protein)", "chain": "AAEALAAAVGLIARALGYSEADVAELEALTLAHGVKGTLIAIALAEGDEELADLLERLSEAQVAAVVLRAAAELEAHPDLTPEEVKALLLRLAREALAAA"}, "B12": {"name": "GBRAP_43_5750 (protein)", "chain": "MEEIIEGHVDFALLAAEDPNISEEQKLKIAKDTFDILADENISLPEESSKLTEALAKSLSLEQLKELLAHLKELAKKYPELKELFDKNSKIIEEAIKKLE"}, "B13": {"name": "GBRAP_43_5791 (protein)", "chain": "MEEIVEGALDFARTALETPEITDETKARIVVDAVDFAADEGLLTEEELEELLRLLAESVSLEVAERALEEILKRLKELGAPQSLIDVVEKALEEVKKRRA"}, "B14": {"name": "GBRAP_184_5085 (protein)", "chain": "KTLERLIEAETPEEAERKLREVMAEAGAAKAALTVLVDVKGLDVETAIRLLEIAGEEKKRLGIPDVTIGFTEAFTEEEIDRILKKADEAGVRVVLPIKEE"}, "B15": {"name": "GBRAP_160_4069 (protein)", "chain": "MEELEKLKKEIEEIFDEAIEMMKGQDHEERVTIARVMGGEVVLLLEEDPSVSEEAVEEADKIMDELVATIEANPDLTDEELEALIEEARDKVIEAIEKHT"}, "B16": {"name": "GBRAP_128_3262 (protein)", "chain": "MNEEIVKYALEVVEKIKNSNKEEAKKIADEFMEWLLNSSLEDAEQAVDVIESNLDKLTAEQLEILADAAREHRPKATPEKANLIAGLEVEALNEAEEKEE"}, "B17": {"name": "GBRAP_128_3506 (protein)", "chain": "STAAAVATVAALMAAIKTADPETARALAAQIVELLNSVDLETAEAMVDVILAALPELSKEHLEVLADTFREKRPEVSPEVANLLADIEVEALNEAEEKEE"}, "B18": {"name": "GBRAP_11_2740 (protein)", "chain": "KKEKLEEILKLAEELAKALQELIEKGVDNKELQKKAEELLKKLKEKVKELGDEDLIKLVEQIEEEWKKALEDPETKLEHLKNALATARVLAGQVELLIEE"}, "B19": {"name": "GBRAP_184_5284 (protein)", "chain": "EVRHVEIVAETAEEAIAQVRAAAEAARAAGAKLDLTLLLRDADVEGVKELLELLKELREEGVIERAVLGIENERTEEEIDELLEAADEAGVRVVLAISDE"}}, "note": "In all, about 4,500 sequences were measured (“median log2 fold change of GCK-ALFA target abundance (FLAG IP / Myc IP barcode read proportion)”: median about 0.078, lowest 2% from about -0.6 on). Some of the results follow."}
{"biological_target": "GABARAP, O95166", "sequence (O95166 whole entry, the tested form may be a part)": "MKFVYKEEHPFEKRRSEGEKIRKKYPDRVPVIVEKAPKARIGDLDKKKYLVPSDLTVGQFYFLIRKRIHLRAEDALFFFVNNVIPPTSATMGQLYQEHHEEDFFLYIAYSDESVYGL", "assay": "median log2 fold change of GCK-ALFA target abundance (FLAG IP / Myc IP barcode read proportion) (log2 ratio); each designed protein is fused to an ALFA-tag nanobody in HEK293 cells to bring the named protein to FLAG-tagged glucokinase (GCK); Myc marks an untargeted standard; higher = target protein stabilised (more abundant)", "conditions": "target protein: 3xFLAG-MCP-GCK-ALFA reporter; HEK293 landing pad (RPLP)", "summary_of_the_method": "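HEK293 landing-pad cells received a recombined binder library fused to the ALFA nanobody and were induced with 2 μg mL^−1 doxycycline, then transfected with a plasmid encoding a FLAG-tagged target and a Myc-tagged standard. Lysates were collected after 48 h for anti-FLAG and anti-Myc immunoprecipitation, and the circular RNA barcodes were reverse transcribed, amplified and sequenced. Target abundance for each binder is the median log2 ratio of FLAG to Myc barcode read proportions. Barcodes had to reach a proportion of at least 10^−7 in both replicates, each binder needed at least 3 barcodes per replicate, a pseudocount of 10^−6 was applied, and the two replicates were pooled.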"}
{"binder": "B1", "median log2 fold change": -0.429}
{"binder": "B2", "median log2 fold change": 0.159}
{"binder": "B3", "median log2 fold change": 0.302}
{"binder": "B4", "median log2 fold change": -0.0207}
{"binder": "B5", "median log2 fold change": 0.0856}
{"binder": "B6", "median log2 fold change": -0.327}
{"binder": "B7", "median log2 fold change": 0.134}
{"binder": "B8", "median log2 fold change": 0.317}
{"binder": "B9", "median log2 fold change": 0.399}
{"binder": "B10", "median log2 fold change": 0.291}
{"binder": "B11", "median log2 fold change": -0.0942}
{"binder": "B12", "median log2 fold change": 0.475}
{"binder": "B13", "median log2 fold change": -0.0499}
{"binder": "B14", "median log2 fold change": 0.0379}
{"binder": "B15", "median log2 fold change": -0.202}
{"binder": "B16", "median log2 fold change": 0.232}
{"binder": "B17", "median log2 fold change": 0.226}
{"binder": "B18", "median log2 fold change": 0.486}
{"binder": "B19", "median log2 fold change": 0.0126}
